Source: PubChem BioAssay (Tox21)
Where “and” joins values, the source holds several entries; their conditions need not be identical. Equal entries are not always repeated. The shares of active, inactive and inconclusive entries below differ from those in the screen. Potencies of inconclusive entries are doubtful fits and often do not repeat. Calls of active or inactive are those of the source. Calls follow the shape of the dose curve; as a rule, active = well fitted inhibition curve with a large enough effect in the signal ratio in the repeat runs (not every such curve was filed as active); inconclusive = weak or mixed curves; inactive = flat fitted curve, though single readings scatter; the % refers to the signal ratio.

These compounds were tested against Progesterone receptor (Homo sapiens) (UniProt P06401) (assay: qHTS assay to identify small molecule antagonists of the progesterone receptor (PR) signaling pathway (AID 1346795)). Settings: PR-UAS-bla HEK293T, beta-lactamase FRET ratio, 16 h; series mostly up to 92.4 µM.
UniProt P06401, sequence (P06401 whole entry, looked up): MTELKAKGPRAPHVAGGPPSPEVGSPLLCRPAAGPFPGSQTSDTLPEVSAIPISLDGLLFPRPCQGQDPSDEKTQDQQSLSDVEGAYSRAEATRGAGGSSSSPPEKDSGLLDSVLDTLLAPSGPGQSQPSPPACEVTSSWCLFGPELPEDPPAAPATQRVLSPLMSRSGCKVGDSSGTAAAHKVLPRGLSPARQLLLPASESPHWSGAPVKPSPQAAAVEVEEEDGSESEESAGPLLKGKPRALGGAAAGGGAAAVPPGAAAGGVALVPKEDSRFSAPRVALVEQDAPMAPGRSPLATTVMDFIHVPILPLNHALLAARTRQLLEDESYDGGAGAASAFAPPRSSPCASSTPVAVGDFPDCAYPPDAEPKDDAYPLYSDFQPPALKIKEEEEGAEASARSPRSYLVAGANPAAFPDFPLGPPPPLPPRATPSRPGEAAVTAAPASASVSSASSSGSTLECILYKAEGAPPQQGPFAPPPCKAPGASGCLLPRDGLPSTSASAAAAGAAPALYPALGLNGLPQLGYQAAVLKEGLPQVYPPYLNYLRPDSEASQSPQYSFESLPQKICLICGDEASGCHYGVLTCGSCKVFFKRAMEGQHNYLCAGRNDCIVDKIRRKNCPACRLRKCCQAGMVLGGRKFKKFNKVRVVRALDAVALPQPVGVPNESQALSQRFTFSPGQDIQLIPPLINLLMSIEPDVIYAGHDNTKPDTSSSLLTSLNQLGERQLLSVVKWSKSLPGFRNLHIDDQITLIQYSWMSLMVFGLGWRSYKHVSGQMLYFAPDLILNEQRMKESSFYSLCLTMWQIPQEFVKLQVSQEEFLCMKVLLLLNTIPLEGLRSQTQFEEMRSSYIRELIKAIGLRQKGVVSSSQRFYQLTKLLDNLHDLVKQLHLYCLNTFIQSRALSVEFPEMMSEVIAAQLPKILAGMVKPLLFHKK
Summary of the method: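 Beta-lactamase reporter, HEK293T PR-UAS-bla line; 2% charcoal-stripped FBS; 6 hr pre-incubation, 37C/5% CO2. Compound + R5020 1 nM final, 16 hr. LiveBLAzer B/G FRET substrate, 2 hr RT; fluorescence intensity read.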
Potency is read from the fitted curve at half-maximal effect; tags tell the direction and shape of the fitted curve.

Compound | Potency
Clc1ccc(C(Cn2ccnc2)OCc2c(Cl)cccc2Cl)c(Cl)c1 (centres undefined) | active: 4.22 µM
O=C(Oc1cccc2cccnc12)c1ccccc1 | inconclusive: 4.22 µM [falling, full curve, poor fit]
CN(C[C@@H](CC[N+]12CCC(C3CCCCC3)(CC1)CC2)c1ccc(Cl)c(Cl)c1)C(=O)c1cc(C(F)(F)F)cc(C(F)(F)F)c1 | inconclusive: 38.6 µM [falling, partial curve]
CCOC(=O)C1=C(C)NC(C)=C(C(=O)OCC)C1c1ccccc1/C=C/C(=O)OC(C)(C)C | active: 26.6 µM
CCCCCCOC(=O)c1ccc(O)cc1 | active: 38.6 µM and active: 21.7 µM
CCCC(=O)c1cc(O)c(O)cc1O | inconclusive: 27.3 µM
CCCCCCCCCOC(=O)c1ccc(O)cc1 | active: 24 µM
CCCCCCCCCCCCN(CCO)CCO | active: 60.9 µM
CCCCCCCCCCOCC(O)CN (centres undefined) | inconclusive: 33.5 µM
N#Cc1nc(Cl)c(Cl)c(Cl)c1Cl | inconclusive: 68.6 µM
CCCCCCCCOC(=O)c1cc(O)c(O)c(O)c1 | active: 30.6 µM
CC/C(=C(\c1ccc(O)cc1)c1ccc(OCCN(C)C)cc1)c1ccccc1 | inconclusive: 61.3 µM [falling, partial curve]
CCCCCCOc1cc(C)c(O)c(C)c1C | inconclusive: 27.6 µM
CCCCCCCCCCCCCCCCCC[N+](C)(C)Cc1ccccc1 | inconclusive: 77.7 µM [falling, single point]
CN[C@H]1CC[C@@H](c2ccc(Cl)c(Cl)c2)c2ccc(S(N)(=O)=O)cc21 | inconclusive: 27.3 µM
CCCCC(CC)COC(=O)c1ccc(O)cc1 (centres undefined) | active: 30.5 µM and active: 27.3 µM
CCN=c1cc2oc3cc(NCC)c(C)cc3c(-c3ccccc3C(=O)OCC)c-2cc1C | active: 48.4 µM and active: 54.5 µM
CN(C)CCCN1c2ccccc2CCc2ccc(Cl)cc21 | inconclusive: 77 µM and active: 26.6 µM
Cc1cc(O)c(C(C)C)cc1Cl | inconclusive: 1.37 µM [rising, partial curve, poor fit]
CCCCCCCCCCCCCCCCCC[N+](C)(C)C | inconclusive: 68.8 µM [falling, single point]

Compound | Potency
CCOC(=O)O[C@H](C)OC(=O)c1ccc2c(c1)cc(C(=O)NC1CCN(C(C)C)CC1)n2Cc1cc(-c2ccc(Cl)s2)on1 | inconclusive: 64.1 µM [falling, single point]
C=C1C(CCl)(CCl)C2(Cl)C(Cl)C(Cl)C1(Cl)C2(Cl)Cl (centres undefined) | inconclusive: 10.7 µM [rising, partial curve]
CS(=O)(=O)CCNCc1ccc(-c2ccc3ncnc(Nc4ccc(OCc5cccc(F)c5)c(Cl)c4)c3c2)o1 | active: 7.5 µM
C#CC1(O)CC[C@H]2[C@@H]3CCC4=CCCC[C@@H]4[C@H]3CC[C@@]21C (some centres undefined) | inconclusive: 68.6 µM and inconclusive: 33.5 µM
CCc1cc(Cc2cc(CC)cc(C(C)(C)C)c2O)c(O)c(C(C)(C)C)c1 | inconclusive: 61.1 µM [falling, partial curve]
CC1=C(C(=O)OC(C)C)C(c2cccc([N+](=O)[O-])c2)C(C(=O)OC2CN(C(c3ccccc3)c3ccccc3)C2)=C(N)N1 (centres undefined) | inconclusive: 26.6 µM [falling, partial curve]
CCc1cc(SCc2sc(-c3ccc(C(F)(F)F)cc3)nc2CN2CCN(c3ccc(OC)cc3)CC2)ccc1OCC(=O)O | active: 24.3 µM
CC(C)(c1cc(Br)c(OCCO)c(Br)c1)c1cc(Br)c(OCCO)c(Br)c1 | active: 5.33 µM
CCCCCCCC/C=C/CCCCCCCC1=NCCN1CCO | inconclusive: 54.5 µM [falling, partial curve]
CN(C)CCOc1ccc(/C(=C(/CCCl)c2ccccc2)c2ccccc2)cc1 | inconclusive: 40.5 µM [falling, partial curve]
N/C(=N\N=C\c1ccc(Cl)cc1)N/N=C/c1ccc(Cl)cc1 | inconclusive: 33.5 µM [falling, single point]
Cc1oc(-c2ccccc2)nc1CCOc1ccc(C[C@H](Nc2ccccc2C(=O)c2ccccc2)C(=O)O)cc1 | inconclusive: 68.6 µM [falling, single point]
OCCN1CCN(CC/C=C2/c3ccccc3Sc3ccc(C(F)(F)F)cc32)CC1 | inconclusive: 33.5 µM [falling, single point]
COc1ccc(-n2nc(CCC(=O)N(C)O)cc2-c2ccc(Cl)cc2)cc1 | inconclusive: 26.6 µM [falling, partial curve]
CSc1ccc2c(c1)C(N1CCN(C)CC1)Cc1ccccc1S2 (centres undefined) | active: 26.6 µM
O=C1c2c(O)ccc(O)c2C(=O)c2c(NCCNCCO)ccc(NCCNCCO)c21 | active: 3.35 µM
CC(=O)O[C@]1(C(C)=O)CC[C@H]2[C@@H]3C=C(C)C4=CC(=O)CC[C@]4(C)[C@H]3CC[C@@]21C | inconclusive: 68.6 µM [single point]
CCCCCCCCCCCCc1ccc(O)cc1 | inconclusive: 54.5 µM [falling, partial curve]
OC1(c2ccc(Cl)c(C(F)(F)F)c2)CCN(CCCC(c2ccc(F)cc2)c2ccc(F)cc2)CC1 | inconclusive: 33.5 µM [falling, single point]
